# Some of the results follow. Single values are uncertain, as repeats are few or missing.
# How the values were obtained:
# Assay in all cases: cell count relative to DMSO control; melanoma cells; higher = more viable cells
# Details in all cases: library dose: low library concentration; 72 h
# [1] = test system: COLO792
# [2] = test system: COLO800
# [3] = test system: COLO829
# [4] = test system: G361
# [5] = test system: IPC-298
# [6] = test system: IST-MEL1
# [7] = test system: LB2518-MEL
# [8] = test system: LOXIMVI
# [9] = test system: MEL-HO
# [10] = test system: MZ2-MEL
# [11] = test system: MeWo
# [12] = test system: RPMI7951
# [13] = test system: RVH-421
# [14] = test system: SkMel28
# [15] = test system: SkMel2
# [16] = test system: SkMel30
# [17] = test system: SkMel5
# [18] = test system: UACC257
# [19] = test system: UACC62
# 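Further: cell number obtained by counting DAPI-stained nuclei in high-throughput microscope images with image analysis software, screen run in 1,536-well plates.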
SMILES,cell count [1] [%],cell count [2] [%],cell count [3] [%],cell count [4] [%],cell count [5] [%],cell count [6] [%],cell count [7] [%],cell count [8] [%],cell count [9] [%],cell count [10] [%],cell count [11] [%],cell count [12] [%],cell count [13] [%],cell count [14] [%],cell count [15] [%],cell count [16] [%],cell count [17] [%],cell count [18] [%],cell count [19] [%]
"CN(c1ncccc1CNc1nc(Nc2ccc3c(c2)CC(=O)N3)ncc1C(F)(F)F)S(C)(=O)=O + c1cc(-c2cnn3cc(-c4ccc(OCCN5CCCCC5)cc4)cnc23)ccn1 [Dorsomorphin] (first compound 0.08 µM, partner dose 0.4 µM)",75.9,97.4,71,80.7,93.8,101,89.1,86,79.6,89.8,96,65.9,78.2,95.3,85.7,102,67,97.4,79.6
"CS(=O)(=O)c1ccc(C(=O)Nc2ccc(Cl)c(-c3ccccn3)c2)c(Cl)c1 [vismodegib] + CN(NC(=O)CC(=O)NN(C)C(=S)c1ccccc1)C(=S)c1ccccc1 [STA4783] (first compound 1 µM, partner dose 0.006 µM)",64.6,60.3,60.2,81.9,101,77.7,,78,101,,92.9,124,99.2,113,111,81.6,103,122,91.5
"CS(=O)(=O)c1ccc(C(=O)Nc2ccc(Cl)c(-c3ccccn3)c2)c(Cl)c1 [vismodegib] + COC(=O)c1sccc1S(=O)(=O)Nc1ccc(Nc2ccccc2)cc1OC [GSK0660] (first compound 1 µM, partner dose 1 µM)",118,115,117,98.9,106,97.6,118,134,102,102,114,86.1,118,114,93.5,101,92.5,117,96.8
"C=C(c1ccc(C(=O)O)cc1)c1cc2c(cc1C)C(C)(C)CCC2(C)C [Bexarotene] + O=C(Nc1ccccc1)c1cc([N+](=O)[O-])ccc1Cl [GW9662] (first compound 2 µM, partner dose 2 µM)",96.9,135,84.4,87.1,88.5,100,99.9,136,85.6,1.8,84.7,74.5,84.8,77.9,85.7,110,84.8,118,82.7
"CS(=O)(=O)c1ccc(C(=O)Nc2ccc(Cl)c(-c3ccccn3)c2)c(Cl)c1 [vismodegib] + O=c1cc(-c2cccc3c2Sc2ccccc2S3)oc(N2CCOCC2)c1 [KU55933] (first compound 1 µM, partner dose 1 µM)",90.6,87.3,127,95.9,97.8,104,104,114,101,100,104,106,140,95.9,106,112,103,84.3,94.8
"CCCS(=O)(=O)Nc1ccc(F)c(C(=O)c2c[nH]c3ncc(Cl)cc23)c1F + COc1cc2c(Oc3ccc4[nH]c(C)cc4c3F)ncnc2cc1OCCCN1CCCC1 [cediranib] (first compound 0.08 µM, partner dose 0.4 µM)",85.3,83.4,106,77.5,83.9,87.6,,135,89.7,,98.4,99.5,78.7,80.2,,84.4,90.8,59.2,67.2
"NC1(c2ccc(-c3nc4ccn5c(=O)[nH]nc5c4cc3-c3ccccc3)cc2)CCC1 + CO[C@@H]1[C@H](N(C)C(=O)c2ccccc2)C[C@H]2O[C@]1(C)n1c3ccccc3c3c4c(c5c6ccccc6n2c5c31)C(=O)NC4 [Midostaurin] (first compound 0.4 µM, partner dose 0.08 µM)",67.8,65.7,86.3,84.5,94.5,84.5,,70.6,61.4,,71.5,92.8,78.2,69.3,75.4,72.2,89.5,87.6,60.5
"CN(c1ncccc1CNc1nc(Nc2ccc3c(c2)CC(=O)N3)ncc1C(F)(F)F)S(C)(=O)=O + O=C(Nc1ccccc1)c1cc([N+](=O)[O-])ccc1Cl [GW9662] (first compound 0.08 µM, partner dose 2 µM)",94,165,82.5,93.5,101,114,97.5,67,95.3,95.3,103,73.9,57.9,104,89.5,93.6,103,88.2,83.9
"CCCS(=O)(=O)Nc1ccc(F)c(C(=O)c2c[nH]c3ncc(Cl)cc23)c1F + NC(=O)Nc1cc(-c2cccc(F)c2)sc1C(=O)N[C@H]1CCCNC1 [AZD7762] (first compound 0.08 µM, partner dose 0.02 µM)",109,84.6,123,91.7,102,95.1,,133,106,,115,91.4,103,81.9,,132,96,96.1,68.2
"CCCS(=O)(=O)Nc1ccc(F)c(C(=O)c2c[nH]c3ncc(Cl)cc23)c1F + O=C(Nc1cccc(Cl)c1)Nc1ncc(CCNc2ncnc3ccsc23)s1 [SNS314] (first compound 0.08 µM, partner dose 0.0008 µM)",93.8,99.3,113,94.2,95.5,92.6,99.2,40.3,99.4,89.9,103,96.8,89.1,77.5,103,101,132,102,70.7
"CCCS(=O)(=O)Nc1ccc(F)c(C(=O)c2c[nH]c3ncc(Cl)cc23)c1F + Cc1cc([N+](=O)[O-])ccc1NS(=O)(=O)c1cc(Cl)ccc1Cl [FH535] (first compound 0.08 µM, partner dose 1 µM)",88,96.4,114,86.8,89.3,95.1,78.8,169,97.8,85.6,101,106,69.8,55.2,91.1,90.5,92.7,104,50.2
"NC1(c2ccc(-c3nc4ccn5c(=O)[nH]nc5c4cc3-c3ccccc3)cc2)CCC1 + Cc1cc(N2CCOCC2)cc2[nH]c(-c3c(NC[C@@H](O)c4cccc(Cl)c4)cc[nH]c3=O)nc12 [BMS536924] (first compound 0.4 µM, partner dose 0.2 µM)",54.6,49.7,106,80.3,97.7,92.8,,83.4,73.8,,77.8,104,89.5,68.6,70.1,60.4,102,88.4,72.3
"CCCS(=O)(=O)Nc1ccc(F)c(C(=O)c2c[nH]c3ncc(Cl)cc23)c1F + NCC(=O)Nc1ccc(-n2nc(C(F)(F)F)cc2-c2ccc3c(ccc4ccccc43)c2)cc1 [OSU03012] (first compound 0.08 µM, partner dose 1 µM)",74.4,82.2,90.6,85.3,62,87.4,95,169,92.7,67.2,56,94.1,95.2,77.3,54.5,45.1,112,86.1,58.6
"NC1(c2ccc(-c3nc4ccn5c(=O)[nH]nc5c4cc3-c3ccccc3)cc2)CCC1 + CCc1ccc(CCOc2ccc(CC3SC(=O)NC3=O)cc2)nc1 [pioglitazone] (first compound 0.4 µM, partner dose 2 µM)",64,89.7,96.2,98,92.2,90.6,79.8,136,65.3,92.3,83.4,88.9,87.6,79,78.8,81.3,84.2,89.3,74.6
"NC1(c2ccc(-c3nc4ccn5c(=O)[nH]nc5c4cc3-c3ccccc3)cc2)CCC1 + O=C(CCCCCCC(=O)Nc1ccccc1)NO [vorinostat] (first compound 0.4 µM, partner dose 0.08 µM)",65.4,97.5,91.5,79.4,102,94,99.3,56.7,78.3,97.1,76.2,97.9,86.9,58.8,78.9,145,85.4,73.2,70.3
"CN(c1ncccc1CNc1nc(Nc2ccc3c(c2)CC(=O)N3)ncc1C(F)(F)F)S(C)(=O)=O + C[C@@H]1CCN(C(=O)CC#N)C[C@@H]1N(C)c1ncnc2[nH]ccc12 [CP690550] (first compound 0.08 µM, partner dose 1 µM)",91.4,79.2,89.2,96.5,100,97.5,88.6,153,94.5,95.2,99.4,75.9,102,108,99,93.8,83.1,86.6,89.2
"CN(c1ncccc1CNc1nc(Nc2ccc3c(c2)CC(=O)N3)ncc1C(F)(F)F)S(C)(=O)=O + COc1cc2c(Oc3ccc4[nH]c(C)cc4c3F)ncnc2cc1OCCCN1CCCC1 [cediranib] (first compound 0.08 µM, partner dose 0.4 µM)",70.1,96.1,62.2,91.6,99.3,99.1,,88.4,79.5,,100,72.5,89.2,101,,118,76.6,78.1,81.8
"CCCS(=O)(=O)Nc1ccc(F)c(C(=O)c2c[nH]c3ncc(Cl)cc23)c1F + Cc1cc(N2CCOCC2)cc2[nH]c(-c3c(NC[C@@H](O)c4cccc(Cl)c4)cc[nH]c3=O)nc12 [BMS536924] (first compound 0.08 µM, partner dose 0.2 µM)",87.8,55.5,99.3,68.2,90.7,95.6,,107,106,,95.1,102,73.9,81.1,,83.1,87.8,61.7,54.6
